A short description of series [1]: antibody stability, NanoDSF melt curves. It counts as physicochemical. The settings on record: stored at 4° C. in PBS pH 7.4 for 5 months. How it is done:
Antibodies stored at 4° C. in PBS pH 7.4 for 5 months.
(In general: Differential scanning fluorimetry follows unfolding on heating by fluorescence.)

The subject of series [2] is Ovcar4 human ovarian serous adenocarcinoma cells. As to the kind of experiment: sensitization to carboplatin. It counts as cell-based. An excerpt:
(B) Graphs illustrate that dose-response of carboplatin killing in human ovarian tumor cells was also shifted by treatment with human anti-CLPTM1L. Re-sensitization of MCW-SL3cis cells to cisplatin killing by 102-5 anti-CLPTM1L was synergistic as measured by (C) two-way ANOVA (p<0.05) and (D) isobole and combination index (0.65).
The dose-response of carboplatin killing in human ovarian tumor cells was also shifted by treatment with human anti-CLPTM1L (FIG. 13B). […] Like CLPTM1L induction in SL3cis (FIG. 12C), phosphorylation threonine 308 of Akt was increased in SL3cis compared to that in parental SL3 cells (FIG. 13E).

A further series has as its system SL3 parental xenografts. Put plainly: SL3 xenograft model, parental. The settings on record: weekly 2.5 mg/kg cisplatin and/or 5 mg/kg 102-5; 24 days post-inoculation. The class given is in vivo, NU/J mice. As for the experimental part:
Four-week old female NU/J mice (2019, Jackson Laboratories) were acclimated for 1 week before injection of 0.5×10^6 parental SL3 or 1×10^6 cisplatin-resistant SL3-cis cells subcutaneously into the flank in 200 μL PBS. Tumors were measured with calipers and volumes were calculated by ½ (W×W×L). After tumors had grown to an average of 100 mm^3, mice were separated into groups of 5 mice, each group with 100 mm^3 average tumor sizes. Mice were treated weekly with intraperitoneal doses of PBS control, cisplatin 2.5 mg/kg, and/or 102-5 5 mg/kg in 200 μL of PBS at room temperature beginning on day 6 post-inoculation. Cisplatin treatments were administered 24 hours following antibody treatment. Tumor volume was measured at least weekly. Animal health was monitored daily and animal weights measured at least weekly. All procedures were reviewed and approved by MCW IACUC committee #2 under AUA6339.
J/NU mice xenografted with SL3 parental or SL3-cis platinum resistant cells were treated weekly with control vehicles, 2.5 mg/kg cisplatin, and/or 5 mg/kg 102-5 anti-CLPTM1L. The effects of cisplatin and those of 102-5 on cisplatin treatment were investigated in this model rather than those of carboplatin since the SL3cis line was developed specifically as a cisplatin resistant line.

For series [3], the system named is Caspase-3 cleavage and Akt phosphorylation in SL3cis. As to the kind of experiment: Western blotting of SL3cis lysates for caspase cleavage and Akt phosphorylation. The class given is cell-based, human. As for the experimental part: (A) A2780 apoptotic killing (casp 3/7 live imaging) after 36 hour mAb treatment (scFv clones 102-4a left, 102-5a right) and 24-hour carboplatin treatment. (B) Dose-response to up to 20 μM carboplatin in resistant A2780 cells treated with either control IgG1 or 102-5, relative to 0 carboplatin controls. (C) Kinetic killing assay (live imaging) in A2780 with human anti-CLP™1L scFv and/or 10 μM carboplatin treatment. *p<0.05, **p<0.005, ***p<0.0005. (D) Western blotting and densitometry for Akt and phospho-Akt (T308) in A2780 andA2780cis. (E) Cisplatin viability (MTT) inhibition curves for SL3 sensitive (parental) and resistant (SL3cis) tumor spheroids, pAkt (T308) and total Akt western blots on SL3 and SL3cis spheroid lysates (inset). (F) Viability (MTT) of SL3cis spheroids after 16 days of growth, treated with cisplatin and/or 102-5 anti-CLPTM1L at the indicated concentrations beginning at 4 days post-seeding. *p<0.05, **p<0.005. (G) Photomicrographs of SL3cis spheroids after 16 days of growth, treated with cisplatin and/or 102-5 anti-CLPTM1L. […]
Cells were lysed with 100 μL of 1× NP40 lysis buffer containing proteinase inhibitors, sheared 10 times with a 28-gauge needle, spun at 16,000×g for 30 minutes, normalized by protein concentration as determined by the Bradford method, and the supernatant boiled for 5 minutes. Twenty microliters of normalized lysate were resolved by SDS-PAGE on 10% acrylamide gels at 150 volts for 1 hour, transferred by iBlot dry transfer (Life Technologies), blocked for 2 hours with TBST 10% milk, incubated with primary antibodies at 1:1000 in TBST 5% milk at 4C overnight with rocking, washed 3×5 minutes with TBST, incubated with secondary anti-rabbit-HRP (Santa Cruz Biotechnology) or goat anti-human-HRP (Invitrogen MH1715) at 1:10,000 in TBST 5% milk for 2 hours with rocking, washed 5×10 minutes with TBST, and signal analyzed using a Biorad Chemidoc XRS. […] Quantitation of Western analyses of three independent cultures was done using Image J software (24).
(In western blotting, separated proteins are transferred to a membrane and probed.)

The test system of a further series is ovarian tumor cells. As to the kind of experiment: internalization into tumor cells. It counts as cell-based.

The values below come from patent publication US12129305B2, “Targeting CLPTM1L for treatment and prevention of cancer” (The Medical College of Wisconsin, Inc., priority 2018, dated 2024).

B1: 102-5: Human anti-CRR9/CLPTM1L IgG1; heavy chain V SEQ ID NO:30, light chain V SEQ ID NO:31 (antibody, V domains shown)
VH: EVQLLESGGGLVQPGGSLRLSCAASGFSFSSYEMNWVRQAPGKGPEWISYISSGGGTIYYADSVRGRFTISRDNSNNTLYLQMNSLRPDDTAIYYCARDRGRKWLQLLFDSWGQGTLVTVSS
VL: QAVLTQPPSASGTPGQKVTISCSGSSSNIGSNTVNWYQQLPGTAPKLLIYTNNQRPSGVPDRFSGSKSGASASLAISGLQSKDEADYYCAAWDDSLNGWVFGGGTKLTVLG
modifications: Synthetic- Anti-CRR9/CLPTM1L clone 102-5 heavy chain V; Synthetic- Anti-CRR9/CLPTM1L clone 102-5 light chain V
In the case of B1, the antibody stability result in series [1] was “stable under these conditions”. In addition, the sensitization to carboplatin result in series [2] is “synergistically sensitized to carboplatin”. Besides, the “tumor growth and volumes” value in the series with SL3 parental xenografts is given as “significantly inhibited”. Moreover, the figures for the “Akt phosphorylation at threonine 308” value in series [3] (SL3cis spheroids) and in series [3] (monolayer cultures of SL3cis cells) were “abrogated” and “dose-dependent inhibition of Akt phosphorylation at threonine 308”, respectively. Further, the Caspase-3 cleavage entry in series [3] (SL3cis spheroids, 16 days of growth) is “Caspase-3 cleavage was induced”. The internalization result in the series on ovarian tumor cells is listed as “internalized into ovarian tumor cells in a receptor-dependent fashion”.
